Several values for one entry are separate records, joined by “and”; a condition that tells them apart may be missing. Equal entries are not always repeated. The campaign covered roughly 230,000 compounds. About 1,500 (0.65%) were called active. Inconclusive results, whose numbers are uncertain, are shown with a selection of clear calls. Calls come from the whole dose curve; as a rule, active = well fitted inhibition curve with a large enough effect; inconclusive = small, poorly fitted or top-dose-only effect; inactive = no such curve, though single readings can be large or run the other way. A potency beside an inconclusive call is a rough fit, not a confirmed value.
molecular target: Lethal(3)malignant brain tumor-like protein 1 (Homo sapiens) (UniProt Q9Y468); assay: qHTS Assay for the Inhibitors of L3MBTL1; conditions: AlphaScreen L3MBTL1–H3K9me1 peptide binding; activity, negative = inhibition: at 57.1 µM (top of the series); note: nearly all actives have a fitted effect of over 60% in size
Outline: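 Read-out is AlphaScreen signal from streptavidin donor and nickel chelate acceptor beads (10 ug/mL final each) bridging L3MBTL1 (50 nM) and biotinylated K9-monomethylated H3(1-15) peptide (75 nM), after 30 min compound exposure at room temperature.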
% is set by controls: 0 for no effect and ±100 for the full control effect; potency is the fitted concentration of half-maximal effect; tags give direction and shape of the fitted curve.

Sequence of UniProt Q9Y468 (Q9Y468 whole entry, looked up): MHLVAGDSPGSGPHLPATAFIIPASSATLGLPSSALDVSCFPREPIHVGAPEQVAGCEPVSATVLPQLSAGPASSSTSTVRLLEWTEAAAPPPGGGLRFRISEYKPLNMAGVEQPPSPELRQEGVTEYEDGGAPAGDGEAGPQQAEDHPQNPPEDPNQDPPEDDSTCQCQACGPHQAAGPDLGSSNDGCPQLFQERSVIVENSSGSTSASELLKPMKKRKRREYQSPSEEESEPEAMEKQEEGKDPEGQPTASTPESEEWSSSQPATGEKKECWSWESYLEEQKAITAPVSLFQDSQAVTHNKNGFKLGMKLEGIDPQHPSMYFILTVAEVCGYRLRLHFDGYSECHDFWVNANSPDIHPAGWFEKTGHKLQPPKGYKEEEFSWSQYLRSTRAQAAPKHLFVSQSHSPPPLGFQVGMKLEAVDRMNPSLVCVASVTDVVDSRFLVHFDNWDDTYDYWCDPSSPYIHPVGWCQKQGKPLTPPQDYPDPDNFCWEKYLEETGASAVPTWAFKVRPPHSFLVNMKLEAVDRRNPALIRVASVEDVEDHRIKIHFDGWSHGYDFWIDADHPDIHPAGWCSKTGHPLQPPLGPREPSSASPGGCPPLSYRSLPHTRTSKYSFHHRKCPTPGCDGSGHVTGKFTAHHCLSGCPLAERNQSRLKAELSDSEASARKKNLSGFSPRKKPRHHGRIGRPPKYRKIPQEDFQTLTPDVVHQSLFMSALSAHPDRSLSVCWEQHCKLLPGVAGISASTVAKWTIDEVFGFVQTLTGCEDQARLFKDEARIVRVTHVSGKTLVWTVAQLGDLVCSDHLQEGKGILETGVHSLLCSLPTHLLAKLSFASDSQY

| Structure (SMILES) | Potency | activity, negative = inhibition |
| --- | --- | --- |
| CCC(C)c1ccccc1OCCCCN1CCCC1 (stereo unspecified) | inconclusive: 28.2 µM [inhibitor, partial curve] |  |
| Clc1ccccc1OCCCn1ccnc1 |  | inactive: -6.22% |
| O=[N+]([O-])c1cc(C(F)(F)F)ccc1NCCc1c[nH]c2ccccc12 | inconclusive: 14.1 µM [inhibitor, partial curve] |  |
| CC(C)C(C)(C#N)NC(=O)CSc1nnc(-c2ccncc2)n1Cc1ccccc1 (stereo unspecified) |  | inactive: 2.87% |
| Nc1nc(NCc2ccccc2)nc(Nc2cccc(F)c2)c1[N+](=O)[O-] | inconclusive: 39.8 µM [inhibitor, single point] |  |
| Cc1cc(NS(=O)(=O)c2ccc(Nc3nc(-c4sc(N)nc4C)cs3)cc2)no1 | inconclusive: 31.6 µM [inhibitor, single point] |  |
| c1ccc2c(CCNc3ncnc4nc[nH]c34)c[nH]c2c1 | inconclusive: 0.794 µM [inhibitor, single point] |  |
| O=C(CCN1C(=O)c2ccccc2C1=O)Nc1ccc(-c2nc3ccccc3s2)cc1 | inconclusive: 0.708 µM [inhibitor, single point] |  |
| Cc1ccc2sc(NNC(=O)c3cc(=O)c4ccccc4o3)nc2c1C | inconclusive: 35.5 µM [inhibitor, partial curve] |  |
| O=C(NCc1ccccc1)C(c1ccccc1)N(Cc1ccc2c(c1)OCO2)C(=O)Cc1cccs1 (stereo unspecified) | inconclusive: 3.98 µM [inhibitor, single point] |  |
| CN1CCN(c2nc(-c3ccccc3)ncc2S(=O)(=O)c2ccccc2)CC1 | inconclusive: 20 µM [inhibitor, partial curve, poor fit] |  |
| COc1cc(NCc2ccccc2O)c2ncccc2c1 | inconclusive: 22.4 µM [inhibitor, single point] |  |
| CC(C)(C)c1cc(C(=O)NN)n(Cc2ccc(F)cc2)n1 |  | inactive: -0.709% |
| CCOC(=O)C1=C(COC(=O)c2cc(Br)c(Br)s2)NC(=O)NC1C (stereo unspecified) |  | inactive: -7.73% |
| Nc1ccn(Cc2cccc(F)c2)n1 | inconclusive: 6.31 µM [inhibitor, single point] |  |
| O=C(C[n+]1ccccc1)N/N=C/c1cccs1 | inconclusive: 22.4 µM [inhibitor, single point] |  |
| CCNC(=O)COC(=O)CNC(=O)c1cc(Cl)cc([N+](=O)[O-])c1 |  | inactive: 30.1% |
| Cn1c(=O)c2c([nH]c(=S)n2CCCc2ccccc2)n(C)c1=O |  | inactive: -3.11% [at 2.29 µM] |
| O=C1CC(Sc2nnnn2C2CCCCC2)C(=O)N1c1ccccc1 (stereo unspecified) | inconclusive: 6.31 µM [inhibitor, single point] |  |
| O=C1CCCC2=C1C(c1cccs1)Nc1ccc3ncccc3c12 (stereo unspecified) |  | inactive: 0.663% |
| COc1ccc(CN2CCc3ccccc3C2)cc1Br |  | inactive: -6.62% |
| O=C1NCN(c2ccccc2)C12CCN(CCCC(c1ccc(F)cc1)c1ccc(F)cc1)CC2 | inconclusive: 25.1 µM [inhibitor, single point] |  |
| COc1nsnc1NS(=O)(=O)c1ccc(NC(=S)NC(=O)c2cccnc2)cc1 |  | inactive: 5.12% |

| Structure (SMILES) | Potency | activity, negative = inhibition |
| --- | --- | --- |
| O=C(NCCC1=CCCCC1)c1cc(-c2ccncc2)nc2ccccc12 | inconclusive: 39.8 µM [inhibitor, single point] |  |
| CCC(=O)NC(c1cc(Cl)c2cccnc2c1O)C(C)C (stereo unspecified) | inactive and inconclusive: 39.8 µM [inhibitor, single point] |  |
| COc1ccc(S(=O)(=O)N2CCN(Cc3ccc(Cl)cc3)CC2)cc1 |  | inactive: 2.45% |
| Cc1c(NC(=S)N/N=C/C=C/c2ccccc2)c(=O)n(-c2ccccc2)n1C | inconclusive: 25.1 µM [inhibitor, single point] |  |
| Cc1ccc(CSc2nnc(-c3cccnc3)n2N)cc1 |  | inactive: 2.3% |
| Cc1cc2nc(-c3cccnc3SCC(=O)NCc3ccco3)[nH]c2cc1C | inconclusive: 28.2 µM [inhibitor, single point] |  |
| O=[N+]([O-])c1nn(-c2ccc3c(c2)OCCO3)n(O)c1=Nc1ccccc1 |  | inactive: -28% |
| CCc1c(C)sc2nc3c(C(=O)N4CCOCC4)cc(C(=O)c4cc(F)ccc4O)cn3c(=O)c12 | inconclusive: 28.2 µM [inhibitor, partial curve] |  |
| Cc1cccc(NC2=C/C(=N/S(=O)(=O)c3cccs3)c3ccccc3C2=O)c1 | active: 1.58 µM |  |
| CC(Cl)C(=O)Nc1ccccc1C#N (stereo unspecified) | inconclusive: 0.794 µM [inhibitor, single point] |  |
| O=C(CSC1=NCCS1)c1ccc(Cl)cc1 |  | inactive: 1.39% |
| Cc1cc(C(=O)COC(=O)c2ccc([N+](=O)[O-])o2)c(C)n1CC1CCCO1 (stereo unspecified) | inconclusive: 14.1 µM [inhibitor, partial curve] |  |
| Cc1ccc(S(=O)(=O)c2ccc(NN)cc2)cc1 |  | inactive: 2.99% |
| CCN(CC)c1ccc(C(=O)NC(=S)N2CCN(Cc3ccc4c(c3)OCO4)CC2)cc1 | inconclusive: 15.8 µM [inhibitor, partial curve] |  |
| COc1ccc(C(CC(=O)NCc2ccccc2)Sc2n[nH]c(-c3ccc(Cl)cc3)n2)cc1 (stereo unspecified) |  | inactive: -2.47% |
| O=C(Nc1nc2c(F)cc(F)cc2s1)C1CC(=O)N(Cc2ccco2)C1 (stereo unspecified) | inconclusive: 39.8 µM [inhibitor, single point] |  |
| Cc1noc(C)c1NC(=O)Nc1cccc2c1O[C@H](CN(C)C(=O)NC1CCCCC1)[C@@H](C)CN([C@H](C)CO)C2=O |  | inactive: -0.345% |
| O=C(O)c1ccccc1C(=O)Nc1ccc(Oc2ccc3ccccc3c2)cc1 | inconclusive: 15.8 µM [inhibitor, partial curve] |  |
| O=C1N(Cc2cccc(Cl)c2)C[C@@H]2C[C@@H](c3cccc4ncccc34)N3CCC[C@@]123 | inconclusive: 4.47 µM [inhibitor, full curve, poor fit] |  |
| COc1ccc(/C=C2\Oc3cc(OCC(=O)N4CCC[C@H]4CO)ccc3C2=O)c(OC)c1 |  | inactive: 10.5% |
| CCOc1cc2[nH]c(=S)n(CC3CCCO3)c(=O)c2cc1OCC (stereo unspecified) |  | inactive: 4.29% |
| NC(=O)COC(=O)c1ccccc1SCC(=O)NC1CCCCCC1 | inconclusive: 3.55 µM [inhibitor, partial curve] |  |
| On1c2c(c3c4nonc4ccc31)CCCC2 | inconclusive: 28.2 µM [inhibitor, single point] |  |
